The other results are listed elsewhere or left out.
biological target: T1, MBP-FoxP1dN (Mus musculus, UniProt P58462 326-579); assay: PD-seq (MBP pull-down with sequencing); 20 mM Tris-HCl pH 7.5, 100 mM NaCl, 1.5 mM MgCl2, 0.4 uM protein, 0.1 uM dsDNA library, 30 min, room temperature, amylose pull-down; high values mean tight binding; conditions: protein: recombinant; tags: His6-MBP; chain copies: 2; dsDNA, one strand shown
T1 sequence: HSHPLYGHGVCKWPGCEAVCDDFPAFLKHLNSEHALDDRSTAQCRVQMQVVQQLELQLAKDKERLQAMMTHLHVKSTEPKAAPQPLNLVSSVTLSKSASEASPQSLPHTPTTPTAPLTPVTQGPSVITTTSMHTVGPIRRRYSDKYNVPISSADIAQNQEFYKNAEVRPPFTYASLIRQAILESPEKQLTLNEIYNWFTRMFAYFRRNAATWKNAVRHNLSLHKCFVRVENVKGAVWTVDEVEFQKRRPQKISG
Summary of the method: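 A degenerate double-stranded DNA library, filled in with Klenow, was added at 0.1 µM to 0.4 µM His6-MBP-tagged mouse FoxP3 or FoxP1 fragment lacking the N-terminus, expressed in E. coli. Incubation lasted 30 min at room temperature in Tris pH 7.5 buffer with NaCl and MgCl2, after which complexes were collected on amylose resin, washed three times, digested with proteinase K to free the DNA, barcoded by PCR and sequenced by Illumina. Binding is the pooled-replicate reads-per-million enrichment of pull-down over input.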

Sequence | binding signal
GATGATTGTTCTCCCAGCTGATGAATTGGCAGTGTCGAGTAAACAAATTTTCCTAATCTTTCTGTTCAAGCGCCATCTAC | 0.878 RPM ratio (pull-down/input)
GATGATTGTTCTCCCAGCTGATGAATTTCTCAGATCGAGTAAACAAATTTTCCTAATCTTTCTGTTCAAGCGCCATCTAC | 0.8 RPM ratio (pull-down/input)
GATGATTGTTCTCCCAGCTGATGAATTACTGTGATCGAGTAAACAAATTTTCCTAATCTTTCTGTTCAAGCGCCATCTAC | 1.11 RPM ratio (pull-down/input)
GATGATTGTTCTCCCAGCTGATGAATTTCATTGCTCGAGTAAACAAATTTTCCTAATCTTTCTGTTCAAGCGCCATCTAC | 0.797 RPM ratio (pull-down/input)
GATGATTGTTCTCCCAGCTGATGAATTAGCACACTCGAGTAAACAAATTTTCCTAATCTTTCTGTTCAAGCGCCATCTAC | 0.921 RPM ratio (pull-down/input)
GATGATTGTTCTCCCAGCTGATGAATTGGCTGTGTCGAGTAAACAAATTTTCCTAATCTTTCTGTTCAAGCGCCATCTAC | 0.893 RPM ratio (pull-down/input)
GATGATTGTTCTCCCAGCTGATGAATTACGTACTTCGAGTAAACAAATTTTCCTAATCTTTCTGTTCAAGCGCCATCTAC | 1.05 RPM ratio (pull-down/input)
GATGATTGTTCTCCCAGCTGATGAATTGTCACTCTCGAGTAAACAAATTTTCCTAATCTTTCTGTTCAAGCGCCATCTAC | 1.05 RPM ratio (pull-down/input)
GATGATTGTTCTCCCAGCTGATGAATTTGGCCCTTCGAGTAAACAAATTTTCCTAATCTTTCTGTTCAAGCGCCATCTAC | 0.862 RPM ratio (pull-down/input)
GATGATTGTTCTCCCAGCTGATGAATTCTACATGTCGAGTAAACAAATTTTCCTAATCTTTCTGTTCAAGCGCCATCTAC | 0.904 RPM ratio (pull-down/input)
GATGATTGTTCTCCCAGCTGATGAATTCCTGTAATCGAGTAAACAAATTTTCCTAATCTTTCTGTTCAAGCGCCATCTAC | 1.3 RPM ratio (pull-down/input)
GATGATTGTTCTCCCAGCTGATGAATTAGCCGTCTCGAGTAAACAAATTTTCCTAATCTTTCTGTTCAAGCGCCATCTAC | 0.819 RPM ratio (pull-down/input)
GATGATTGTTCTCCCAGCTGATGAATTGCCATTCTCGAGTAAACAAATTTTCCTAATCTTTCTGTTCAAGCGCCATCTAC | 1.01 RPM ratio (pull-down/input)
GATGATTGTTCTCCCAGCTGATGAATTCGCTGTGTCGAGTAAACAAATTTTCCTAATCTTTCTGTTCAAGCGCCATCTAC | 0.881 RPM ratio (pull-down/input)
GATGATTGTTCTCCCAGCTGATGAATTTTGGGAGTCGAGTAAACAAATTTTCCTAATCTTTCTGTTCAAGCGCCATCTAC | 0.822 RPM ratio (pull-down/input)
GATGATTGTTCTCCCAGCTGATGAATTACCGGCATCGAGTAAACAAATTTTCCTAATCTTTCTGTTCAAGCGCCATCTAC | 1.1 RPM ratio (pull-down/input)
GATGATTGTTCTCCCAGCTGATGAATTACTGTACTCGAGTAAACAAATTTTCCTAATCTTTCTGTTCAAGCGCCATCTAC | 1.04 RPM ratio (pull-down/input)
GATGATTGTTCTCCCAGCTGATGAATTCAAGGTCTCGAGTAAACAAATTTTCCTAATCTTTCTGTTCAAGCGCCATCTAC | 0.852 RPM ratio (pull-down/input)
GATGATTGTTCTCCCAGCTGATGAATTGCACTAATCGAGTAAACAAATTTTCCTAATCTTTCTGTTCAAGCGCCATCTAC | 1.34 RPM ratio (pull-down/input)
GATGATTGTTCTCCCAGCTGATGAATTGACGGTTTCGAGTAAACAAATTTTCCTAATCTTTCTGTTCAAGCGCCATCTAC | 0.976 RPM ratio (pull-down/input)

Sequence | binding signal
GATGATTGTTCTCCCAGCTGATGAATTACGCGCATCGAGTAAACAAATTTTCCTAATCTTTCTGTTCAAGCGCCATCTAC | 1.27 RPM ratio (pull-down/input)
GATGATTGTTCTCCCAGCTGATGAATTCGACACGTCGAGTAAACAAATTTTCCTAATCTTTCTGTTCAAGCGCCATCTAC | 0.896 RPM ratio (pull-down/input)
GATGATTGTTCTCCCAGCTGATGAATTAGGAGCGTCGAGTAAACAAATTTTCCTAATCTTTCTGTTCAAGCGCCATCTAC | 0.913 RPM ratio (pull-down/input)
GATGATTGTTCTCCCAGCTGATGAATTCTGTCTCTCGAGTAAACAAATTTTCCTAATCTTTCTGTTCAAGCGCCATCTAC | 0.793 RPM ratio (pull-down/input)
GATGATTGTTCTCCCAGCTGATGAATTTGAGAATTCGAGTAAACAAATTTTCCTAATCTTTCTGTTCAAGCGCCATCTAC | 0.916 RPM ratio (pull-down/input)
GATGATTGTTCTCCCAGCTGATGAATTCTTCTATTCGAGTAAACAAATTTTCCTAATCTTTCTGTTCAAGCGCCATCTAC | 0.984 RPM ratio (pull-down/input)
GATGATTGTTCTCCCAGCTGATGAATTGCGGTCCTCGAGTAAACAAATTTTCCTAATCTTTCTGTTCAAGCGCCATCTAC | 0.916 RPM ratio (pull-down/input)
GATGATTGTTCTCCCAGCTGATGAATTAGGACCATCGAGTAAACAAATTTTCCTAATCTTTCTGTTCAAGCGCCATCTAC | 0.945 RPM ratio (pull-down/input)
GATGATTGTTCTCCCAGCTGATGAATTATCAACATCGAGTAAACAAATTTTCCTAATCTTTCTGTTCAAGCGCCATCTAC | 2.09 RPM ratio (pull-down/input)
GATGATTGTTCTCCCAGCTGATGAATTTGCATCATCGAGTAAACAAATTTTCCTAATCTTTCTGTTCAAGCGCCATCTAC | 1.65 RPM ratio (pull-down/input)
GATGATTGTTCTCCCAGCTGATGAATTGGTGGCCTCGAGTAAACAAATTTTCCTAATCTTTCTGTTCAAGCGCCATCTAC | 0.879 RPM ratio (pull-down/input)
GATGATTGTTCTCCCAGCTGATGAATTCAGCACATCGAGTAAACAAATTTTCCTAATCTTTCTGTTCAAGCGCCATCTAC | 0.96 RPM ratio (pull-down/input)
GATGATTGTTCTCCCAGCTGATGAATTACACACGTCGAGTAAACAAATTTTCCTAATCTTTCTGTTCAAGCGCCATCTAC | 1.26 RPM ratio (pull-down/input)
GATGATTGTTCTCCCAGCTGATGAATTCGAAACCTCGAGTAAACAAATTTTCCTAATCTTTCTGTTCAAGCGCCATCTAC | 0.795 RPM ratio (pull-down/input)
GATGATTGTTCTCCCAGCTGATGAATTTTAGACATCGAGTAAACAAATTTTCCTAATCTTTCTGTTCAAGCGCCATCTAC | 1.05 RPM ratio (pull-down/input)
GATGATTGTTCTCCCAGCTGATGAATTCGAACGGTCGAGTAAACAAATTTTCCTAATCTTTCTGTTCAAGCGCCATCTAC | 0.787 RPM ratio (pull-down/input)
GATGATTGTTCTCCCAGCTGATGAATTGTGGTCGTCGAGTAAACAAATTTTCCTAATCTTTCTGTTCAAGCGCCATCTAC | 1.02 RPM ratio (pull-down/input)
GATGATTGTTCTCCCAGCTGATGAATTAAGTAATTCGAGTAAACAAATTTTCCTAATCTTTCTGTTCAAGCGCCATCTAC | 0.984 RPM ratio (pull-down/input)
GATGATTGTTCTCCCAGCTGATGAATTCAAATAATCGAGTAAACAAATTTTCCTAATCTTTCTGTTCAAGCGCCATCTAC | 1.29 RPM ratio (pull-down/input)
GATGATTGTTCTCCCAGCTGATGAATTGGTTGCCTCGAGTAAACAAATTTTCCTAATCTTTCTGTTCAAGCGCCATCTAC | 1.03 RPM ratio (pull-down/input)

Source: PMC12820563, “FoxP3 forms a head-to-head dimer in vivo and stabilizes its multimerization on adjacent microsatellites”
